From article PMC9959916
Substitutions are numbered along the chain they refer to. Results are given in words; binding and its absence hold for the method and conditions named. Binding seen in cells or lysates may run through a third protein. Some entries that bind do so weakly or less than the wild type. Where a sequence is shown, tags or fusion partners need not be part of it.

Sequences of proteins named here, by UniProt entry; tags and fusion partners are left off.
UniProt Q06609: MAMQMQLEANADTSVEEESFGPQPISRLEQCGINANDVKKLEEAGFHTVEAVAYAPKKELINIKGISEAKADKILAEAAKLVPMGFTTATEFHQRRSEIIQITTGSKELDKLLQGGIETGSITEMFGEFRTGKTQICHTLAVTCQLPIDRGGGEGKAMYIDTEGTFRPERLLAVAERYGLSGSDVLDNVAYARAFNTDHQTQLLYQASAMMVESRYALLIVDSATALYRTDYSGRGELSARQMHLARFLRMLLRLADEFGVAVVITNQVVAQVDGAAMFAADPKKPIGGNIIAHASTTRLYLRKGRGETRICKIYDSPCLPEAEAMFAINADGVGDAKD

Columns and labels:
Assay in all cases: co-IP; lysates of HeLa cells stably expressing FLAG-HA-NLS-fused canine BRCA2 peptides, Benzonase-treated; FLAG M2 affinity agarose at 4 °C overnight; washed with 20 mM Tris-HCl pH 8.0, 150 mM KCl, 2 mM MgCl2, 10% glycerol; blots for endogenous RAD51 and PP2A-C subunit
[1] = target: T1, FLAG-HA-NLS-fused cBRC1-HCR (canine BRCA2 993–1139 aa) (canine (Canis lupus familiaris)) (UniProt Q8MKI9)
T1 sequence: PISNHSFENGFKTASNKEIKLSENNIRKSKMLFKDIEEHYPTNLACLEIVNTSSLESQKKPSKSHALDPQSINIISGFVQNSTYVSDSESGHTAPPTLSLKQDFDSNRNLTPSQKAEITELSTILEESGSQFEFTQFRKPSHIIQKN

[2] = target: T2, FLAG-HA-NLS-fused cBRC1-HCR-BRC2 (canine BRCA2 993–1248 aa) (canine (Canis lupus familiaris)) (UniProt Q8MKI9)
T2 sequence: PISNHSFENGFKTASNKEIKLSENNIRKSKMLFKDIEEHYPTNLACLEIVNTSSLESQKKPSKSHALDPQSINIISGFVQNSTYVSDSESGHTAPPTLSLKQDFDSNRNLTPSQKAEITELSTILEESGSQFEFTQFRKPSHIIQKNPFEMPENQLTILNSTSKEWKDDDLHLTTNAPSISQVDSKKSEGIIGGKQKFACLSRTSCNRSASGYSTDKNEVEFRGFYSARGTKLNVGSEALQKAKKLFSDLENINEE

[3] = target: T3, FLAG-HA-NLS-fused cBRC1-HCR-BRC2 I1110M (canine (Canis lupus familiaris)) (UniProt Q8MKI9)
T3 sequence: T2 sequence with I118M

[4] = target: T4, FLAG-HA-NLS-fused cBRC1-HCR-BRC2 S1114P (canine (Canis lupus familiaris)) (UniProt Q8MKI9)
T4 sequence: T2 sequence with S122P

[5] = target: T5, FLAG-HA-NLS-fused cBRC1-HCR-BRC2 T1115P (canine (Canis lupus familiaris)) (UniProt Q8MKI9)
T5 sequence: T2 sequence with T123P

[6] = target: T6, FLAG-HA-NLS-fused cBRC1-ΔHCR (canine BRCA2 993–1100 aa) (canine (Canis lupus familiaris)) (UniProt Q8MKI9)
T6 sequence: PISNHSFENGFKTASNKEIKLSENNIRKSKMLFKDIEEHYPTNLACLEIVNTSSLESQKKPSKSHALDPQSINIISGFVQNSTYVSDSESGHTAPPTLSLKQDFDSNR

[7] = target: T7, FLAG-HA-NLS-fused cBRC1-ΔHCR-BRC2 (canine BRCA2 993–1248 aa deleted with 1101–1133 aa) (canine (Canis lupus familiaris)) (UniProt Q8MKI9)
T7 sequence: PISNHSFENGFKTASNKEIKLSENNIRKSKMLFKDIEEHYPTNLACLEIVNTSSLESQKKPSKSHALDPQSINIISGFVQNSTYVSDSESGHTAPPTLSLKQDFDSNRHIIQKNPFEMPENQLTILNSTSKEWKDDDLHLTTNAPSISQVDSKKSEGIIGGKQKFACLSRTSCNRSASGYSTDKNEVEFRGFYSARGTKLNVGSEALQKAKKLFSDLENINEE

[8] = target: T8, FLAG-HA-NLS-fused cHCR-BRC2 (canine BRCA2 1090–1248 aa) (canine (Canis lupus familiaris)) (UniProt Q8MKI9)
T8 sequence: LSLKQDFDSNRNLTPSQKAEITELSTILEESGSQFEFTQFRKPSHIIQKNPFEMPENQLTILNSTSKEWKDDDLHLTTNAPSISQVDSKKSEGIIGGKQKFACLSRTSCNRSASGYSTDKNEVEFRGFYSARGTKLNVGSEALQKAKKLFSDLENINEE

[9] = target: T9, FLAG-HA-NLS-fused cΔHCR-BRC2 (canine BRCA2 1134–1248 aa) (canine (Canis lupus familiaris)) (UniProt Q8MKI9)
T9 sequence: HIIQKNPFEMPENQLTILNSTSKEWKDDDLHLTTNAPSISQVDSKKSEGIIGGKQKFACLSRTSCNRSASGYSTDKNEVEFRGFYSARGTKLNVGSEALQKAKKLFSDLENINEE

- binding [1]: binds
- binding [2]: binds
- binding [3]: binds
- binding [4]: binds
- binding [5]: binds
- binding [6]: binds
- binding [7]: binds
- binding [8]: binds
- binding [9]: binds
Substance: endogenous RAD51 (HeLa cells) (from UniProt Q06609 1-339)
